Assay results as given in PubChem BioAssay AID1745853 (National Center for Advancing Translational Sciences (NCATS), 2022).
Some of the results follow. Further columns of the screen follow, without active or inactive calls.

Experiments:
Experiment in all cases: Primary Screen for Target Class Profiling of Small Molecule Inhibitors of Methyltransferases
[1] = target: Glycine N-methyltransferase (Homo sapiens) (UniProt Q14749); conditions: purified enzyme, MTase-Glo SAH luminescence; measured here: GNMT inhibition; at 40 µM; stronger effect = lower value
Procedure, shortened: (§1)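 Each enzyme was assayed with SAM and its substrate. SAH formation detected by MTase-Glo luminescence; single-point 40 uM screen[…].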

[2] = target: Guanidinoacetate N-methyltransferase (Homo sapiens) (UniProt Q14353); conditions: purified enzyme, MTase-Glo SAH luminescence; measured here: GAMT inhibition; at 40 µM; stronger effect = lower value
Procedure, shortened: as §1

[3] = target: Histamine N-methyltransferase (Homo sapiens) (UniProt P50135); conditions: purified enzyme, MTase-Glo SAH luminescence; measured here: HNMT inhibition; at 40 µM; stronger effect = lower value
Procedure, shortened: as §1

[4] = target: Nicotinamide N-methyltransferase (Homo sapiens) (UniProt P40261); conditions: purified enzyme, MTase-Glo SAH luminescence; measured here: NNMT inhibition; at 40 µM; stronger effect = lower value
Procedure, shortened: as §1

[5] = target: Phenylethanolamine N-methyltransferase (Homo sapiens) (UniProt P11086); conditions: purified enzyme, MTase-Glo SAH luminescence; measured here: PNMT inhibition; at 40 µM; stronger effect = lower value
Procedure, shortened: as §1
% is set by controls: 0 for no effect and ±100 for the full control effect.

SMILES	activity change, negative = inhibition [1] [%]	activity change, negative = inhibition [2] [%]	activity change, negative = inhibition [3] [%]	activity change, negative = inhibition [4] [%]	activity change, negative = inhibition [5] [%]
CC12Cc3cn[nH]c3C=C1CCC1C2CCC2(C)C1CCC2(C)O (stereo not given)	-10.6	5.11	-2.05	-16.8	-2.65
Cn1nc(-c2cccs2)cc1[C@H]1CN2CC[C@H]1C[C@@H]2CNC(=O)Nc1ccccc1	-4.99	-3.4	-24.4	-9.63	-13.7
NCCc1c[nH]c2ccc(C(N)=O)cc12	-0.457	9.13	-34.4	-6.93	2.48
CC(C)c1ccc(C2c3cccn3-c3ccccc3CN2C(=O)Nc2ccc(F)cc2)cc1 (stereo not given)	-1.7	3.88	-4.53	-6.07	-2.04
CCOc1ccc(C2c3cccn3-c3ccccc3CN2C(=O)Nc2ccc(C)cc2Cl)cc1 (stereo not given)	-3.68	1.72	-2.52	-1.77	-0.725
COc1ccc(C2c3cccn3-c3ccccc3CN2C(=O)Nc2ccc3c(c2)OCCO3)cc1OC (stereo not given)	13.4	2.08	6.53	5.95	11.1
Cc1ccc(Cl)cc1NC(=O)N1Cc2ccccc2-n2cccc2C1C (stereo not given)	6.74	0	5.22	3	6.55
O=c1c(-c2cccc(C(F)(F)F)c2)ccc2n1C[C@H]1C[C@@H]2CN(S(=O)(=O)c2cccs2)C1	-3.94	-11.5	-2.54	-17	-13.4
CN(C)c1cc2c(cc1Sc1nc3c(N)nccc3n1CCNCC(C)(C)C)OCO2	-5.07	-4.17	-41.1	-53.5	-19.7
CCN(CC)C(=O)c1ccc(C2=CC3(CCNCC3)Oc3cccc(O)c32)cc1	-0.431	-2.91	3	-20.5	-1.13
O=S1(=O)N(CCN2CC=C(c3c[nH]c4cc(F)ccc34)CC2)c2cccc3c2N1CCC3	-3.45	10.7	-51.7	-9.22	-5.25
Cc1cn(C[C@H](N)C(=O)O)c(=O)n(Cc2cc(-c3ccccc3)sc2C(=O)O)c1=O	-5.32	3.51	9.82	-8.7	3.85
COc1ccc(C2c3cccn3-c3ccccc3CN2C(=O)Nc2ccc(C)cc2C)cc1OC (stereo not given)	7.5	0	-2.61	1.5	5.27
O=C(Nc1ccccc1Cl)N1Cc2ccccc2-n2cccc2C1c1ccc(F)cc1 (stereo not given)	0.908	1.66	3.66	-3.46	4.45
C#C[C@H]1CN2CC[C@H]1C[C@@H]2CNC(=O)COCC(=O)O	-1.27	-3.9	-3.07	-8.92	-4.52
CC1c2cccn2-c2ccccc2CN1C(=O)Nc1ccccc1F (stereo not given)	6.23	1.29	2.67	-4.37	4.41
CCn1cnc2c(Nc3cccc(Cl)c3)nc(N[C@@H]3CCCC[C@@H]3N)nc21	-9.87	0.252	-29.5	-24.7	-5.35
O=C1Nc2ccc3ncsc3c2/C1=C/c1cnc[nH]1	-61.1	-7.36	-13.4	-23.7	-8.78
COc1ccc(OC)c(NC(=O)N2Cc3ccccc3-n3cccc3C2c2ccc(N(C)C)cc2)c1 (stereo not given)	12.6	0	11.8	9.01	8.17
CC1=CC2/C=C(\C)CCC(O)C(O)/C=C/C(=O)OC23C(=O)NC(CC(C)C)C3C1C (stereo not given)	-2.35	7.88	4.15	-9.05	-3.82
CSc1ccc(C2c3cccn3-c3ccccc3CN2C(=O)Nc2ccccc2)cc1 (stereo not given)	2.42	0.599	4.09	1.49	5.18
CC[C@@H](C)[C@H]1C(=O)O[C@H](C(C)C)C(=O)N(C)[C@@H]([C@@H](C)CC)C(=O)O[C@H](C(C)C)C(=O)N(C)[C@@H]([C@H](C)CC)C(=O)O[C@H](C(C)C)C(=O)N1C	5.34	4.88	13	-8.22	0.243
Cc1ccc2c(c1)[C@H]1CN(C)CC[C@H]1N2C(=O)CSc1nnnn1-c1ccc(Cl)cc1	-0.381	1.16	-5.3	-14.3	-5.42
CN(C)c1ccc(C2c3cccn3-c3ccccc3CN2C(=O)Nc2ccccc2C(F)(F)F)cc1 (stereo not given)	9.79	0	1.94	4.04	5.85
CCOc1ccccc1NC(=O)N1Cc2ccccc2-n2cccc2C1c1cccs1 (stereo not given)	-0.912	0.687	0.4	-0.768	5.19
Cc1cccc(NC(=O)N2Cc3ccccc3-n3cccc3C2c2ccc(N(C)C)cc2)c1 (stereo not given)	13.9	1.94	8.37	10.2	9.79
CCOC(=O)Cc1ccc(NC(=O)N2Cc3ccccc3-n3cccc3C2c2ccc(C)cc2)cc1 (stereo not given)	5.59	0	4.89	2.78	0.987
CCOc1ccc(NC(=O)N2Cc3ccccc3-n3cccc3C2c2ccc(OCC)cc2)cc1 (stereo not given)	-10.2	0.061	-3.8	-4.1	-3.86
